The whole screen tested about 340,000 compounds, of which about 6,900 (2%) were called active. Cut-off read from the data, not from the text of the source: active = inhibition above about 30%; inactive = below that, where a call was filed. Only a part is listed here, and it is no random draw. Entries without a call were filed so in the source.

UniProt P14416, sequence (P14416 whole entry, looked up): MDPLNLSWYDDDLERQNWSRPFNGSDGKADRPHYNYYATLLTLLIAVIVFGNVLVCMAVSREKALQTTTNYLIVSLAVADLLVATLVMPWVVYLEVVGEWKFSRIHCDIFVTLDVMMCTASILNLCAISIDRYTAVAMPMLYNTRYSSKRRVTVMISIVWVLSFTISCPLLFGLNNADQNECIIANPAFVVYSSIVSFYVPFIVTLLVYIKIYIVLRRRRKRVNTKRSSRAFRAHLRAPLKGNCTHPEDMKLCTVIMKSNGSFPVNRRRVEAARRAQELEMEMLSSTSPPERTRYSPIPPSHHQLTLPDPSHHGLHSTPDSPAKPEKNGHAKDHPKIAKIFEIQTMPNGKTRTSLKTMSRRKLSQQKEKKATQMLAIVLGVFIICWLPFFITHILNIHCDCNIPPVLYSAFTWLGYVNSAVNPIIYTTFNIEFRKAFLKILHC

This assay addresses D(2) dopamine receptor (Homo sapiens) (UniProt P14416). The assay can be described thus: HTS Assay for Allosteric Antagonists of the Human D2 Dopamine Receptor: Primary Screen for Antagonists. Note: 0% is about no effect. To be noted: HEK293 TREx D2 cells, calcium flux, dopamine EC80; at 10 µM; stronger effect = higher value. The procedure, abridged:
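Measurement of antagonist activity uses fluorescent calcium dye in inducible HEK293 T-REx D2 cells: 10 s baseline, compound addition with 180 s read, EC80 dopamine addition with a further 180 s read.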
For orientation: Calcium flux is commonly read through the fluorescence of an indicator in the cells.
As for `CCOC(=O)c1sc2ccccc2c1S(=O)(=O)N1CCN(c2cc(C)ccc2C)CC1`, the inhibition – broadly, the drop in the measured response relative to a control, in per cent – turned out to be 6.1%.

`CCNC(=O)c1cc2n(n1)CCCN(Cc1ccc(C)cc1)C2=O`: the inhibition came out at 7.93%.

Consider `COc1ccc(CCNC(=O)c2cc3c(=O)oc4ccc(C)cc4c3s2)cc1OC`, for which the inhibition is 13.7%.

Consider `COc1ccc(OCC(=O)Nc2ccc3nn(-c4ccc(OC)cc4)nc3c2)cc1`, for which the inhibition is -6.06%. Then `Cc1nn(C(=O)c2cccc(F)c2)c(C)c1S(=O)(=O)N1CCOCC1`, with -2.89%. For `O=C(C1CCN(c2ncnc3c2nc2n3CCCCC2)CC1)N1CCN(c2ccc(Cl)cc2)CC1`, the inhibition is -2.57%. As to `COc1ccc(-c2cc(C(F)(F)F)n3nc(C(=O)Nc4cc(C)ccc4C)cc3n2)cc1`, the inhibition is 8.45%.

In the case of `Cc1ccc2c(c1)c1c3n2CCN(C(=O)c2ccc(C(F)(F)F)cc2)C3CCC1` (stereo not drawn), the inhibition is 15.7%. For `CC1=C(C(=O)OCc2ccc(C)cc2)C(c2cccc(F)c2F)CC(=O)N1` (stereo not drawn), the inhibition was 7.18%. Then `CCCCN1CC(c2nc3ccccc3n2CCCCOc2ccc(C)cc2C)CC1=O` (stereo not drawn), with 2.43%; and `O=C(NCCCc1nc2ccccc2n1Cc1cccc(Cl)c1)c1ccco1`, with 1.3%; and `Cc1ccc(-n2ncc3c(NCCCN4CCOCC4)ncnc32)cc1Cl`, with -22.6%. As for `Cc1cccc(C)c1NC(=O)c1csc2c1CCCC2`, the inhibition is 2.47%. For the molecule `COc1ccccc1NC(=O)C(=O)c1cc(C)n(-c2ccccc2F)c1C`, the inhibition is -26.8%.

On to `CCc1ccc(NC(=O)c2cc(S(=O)(=O)N3CCCCCC3)ccc2F)cc1`, for which the inhibition is 13.7%. As for `Cc1ccc(NC(=O)Nc2nnc(SCC(=O)Nc3ccc(F)cc3F)s2)cc1`, the inhibition was 18.8%. Consider `CC(=O)N1C(=O)C2(Nc3ccccc3N2)c2ccccc21`, for which the inhibition was active: 34.2%. Take `Cc1nc(N2CCCC2)c2c(C(=O)Nc3cccc(Cl)c3C)c(C)oc2n1`: the inhibition was -2.29%. On to `Cc1ccc(-n2ncc3c(NCCCc4ccccc4)ncnc32)cc1`, for which the inhibition was -20.4%. The value for `CCCNC(=O)C1CCC(Cn2c(=O)c3sccc3n(Cc3ccccc3C)c2=O)CC1` (stereo not drawn) was -13.3%; that for `COc1ccc(Cl)cc1-n1nnc(-c2nc(-c3ccc4c(c3)OCO4)no2)c1C` was -2.01%; that for `COc1cc2[nH]c(=O)n(Cc3ccc(C(=O)NCc4ccccc4)cc3)c(=O)c2cc1OC` was 0.592%. Then `COc1cc(Cl)c(C)cc1NC(=O)c1cc2ccc3cccnc3c2[nH]1`, with 2.92%; and `O=C(c1cc(=O)c2cc(Cl)ccc2o1)N(Cc1ccccc1)C1CCS(=O)(=O)C1` (stereo not drawn), with -26.7%. On to `CC(=O)OCc1cnc(C)c2oc(=O)c(C(=O)Nc3cccc(F)c3)cc12`, for which the inhibition was -12.5%. Regarding `COc1ccccc1NC(=O)c1ccc2c(Cl)c3c(nc2c1)CCCC3`, the inhibition was -3.01%. Consider `COc1ccc(-n2c(=O)c3c4c(sc3n(Cc3ccccc3)c2=O)CN(C(C)=O)CC4)cc1OC`, for which the inhibition turned out to be 10.2%. The value for `CC1=C(c2ccc(C)c(C)c2)S(=O)(=O)N=C1N1CCC(C(=O)NCCc2ccc(Cl)cc2)CC1` was 12.7%.

For the origin of these results see PubChem BioAssay AID485344 (National Center for Advancing Translational Sciences (NCATS), 2010).
